Source: PubChem BioAssay AID1656 (Sanford-Burnham Center for Chemical Genomics, 2009)
This is one part of the list. Shown are side measurements of this screen, not its main read-out; they come without a call. Most of these compounds were active or inconclusive in the main read-out, so they are no random draw.

assay: inhibitors of hepatocyte lipid droplet formation, primary screen, imaging, high-throughput imaging, BODIPY stain (AID 1656); details: AML12 mouse hepatocytes, oleate lipid droplets, measured here: cell count, cytotoxicity flag, at 6.5 µM;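 note: cells counted across two imaged fields per well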
How it was run: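 Assay system: AML12 mouse liver cells | Compound: 6.5 µM single-point dosing | Schedule: Overnight exposure | Technique: Fluorescence imaging, 20x objective, two fields per well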

| SMILES | cell count |
| --- | --- |
| Cc1ccc(-n2nnnc2SCC(=O)Nc2ncc(Cc3ccccc3Cl)s2)cc1 | 668 cells |
| CCOc1ccccc1NC(=O)CCCNC(=O)c1ccc(Cl)cc1 | 813 cells |
| CCOc1ccccc1NC(=O)CCC(=O)Nc1ccccc1OCC | 747 cells |
| CC(C)c1ccccc1NC(=O)COC(=O)c1c2c(nc3ccccc13)CCN(Cc1ccccc1)C2 | 650 cells |
| COc1ccc(N=C2C(=Nc3ccc(OC)cc3)N(c3ccc(N(C)C)cc3)C(=S)N2c2ccc(OC)cc2)cc1 | 682 cells |
| CCOc1nc(-c2ccncc2)nc2ccccc12 | 750 cells |
| Cn1c(=O)c(C(=O)COC(=O)c2cc(C3CC3)nc3ccccc23)c(N)n(Cc2ccccc2)c1=O | 731 cells |
| O=C(Cc1cccc2ccccc12)Nc1nc(-c2cccc([N+](=O)[O-])c2)cs1 | 693 cells |
| CCOC(=O)c1ccc(NC(=O)CN(Cc2ccc(Cl)cc2)S(C)(=O)=O)cc1 | 790 cells |
| CN(C(=O)CSc1cc(C(=O)c2nccn2C)c2ccccc2n1)c1ccccc1 | 641 cells |
| COc1ccc(F)cc1CN1CCN(c2ncnc3scc(-c4ccccc4)c23)CC1 | 662 cells |
| CCOc1ccc(C(=O)CCC(=O)NCC(=O)OCc2ccccc2)cc1OCC | 802 cells |
| CC1=C(C(=O)Nc2cccc(F)c2)C(c2ccsc2)C2=C(CC(C)(C)CC2=O)N1 (stereo not drawn) | 205 cells |
| Cc1oc2ccc(OCc3ccc(F)cc3Cl)cc2c1C(=O)O | 755 cells |
| COc1cc(NC(=O)c2cccs2)c(OC)cc1NC(=O)CCC(=O)Nc1ccc(C)cc1 | 756 cells |
| CCOc1ccc(CCNC(=O)COC(=O)c2cc(OC)cc(OC)c2)cc1OCC | 700 cells |
| C=CCN1C(=O)c2ccccc2Sc2ccc(C(=O)NCC(OC)OC)cc21 | 881 cells |
| C/C(=N\Nc1ccc(S(=O)(=O)Nc2ccccc2)cc1[N+](=O)[O-])c1ccc(N2CCOCC2)cc1 | 713 cells |
| COc1ccc(/C=N/NC(=O)COc2ccccc2-c2ccccc2)cc1 | 146 cells |
| CCn1cc(CCCC(=O)NCc2ccccc2OC)c2ccccc21 | 834 cells |
| O=C(COc1ccc(Cl)cc1)Nc1ccc2c(c1)C(=O)NC2=O | 737 cells |

| SMILES | cell count |
| --- | --- |
| COc1ccc(C(=O)OCC(=O)NC(C)CCc2ccccc2)c(OC)c1 (stereo not drawn) | 810 cells |
| CCOc1ccc(CCNC(=O)/C=C/c2ccco2)cc1OCC | 696 cells |
| Oc1ccc(N=Nc2cccc(C(F)(F)F)c2)cc1C=Nc1ccc(N2CCOCC2)cc1 | 537 cells |
| Cc1ccc(Sc2c(CO)c(-c3ccccc3)nn2C)cc1 | 281 cells |
| COc1cccc(N/C(N)=N/c2nc(CSc3ccccn3)cc(=O)[nH]2)c1 | 204 cells |
| Cc1nc(NC(=O)c2ccc(OCC(C)C)cc2)sc1Cc1ccc2c(c1)OCO2 | 588 cells |
| CCOCCn1c(=NC(=O)c2cc3ccccc3oc2=O)sc2cc(S(N)(=O)=O)ccc21 | 288 cells |
| Cc1cc(C(=O)N2CCc3c([nH]c4ccccc34)C2c2cccc(Cl)c2)nn1C (stereo not drawn) | 765 cells |
| C=C(C)c1cccc(C(C)(C)NC(=O)Nc2ccccc2OCC)c1 | 671 cells |
| COc1ccc(C2CC(c3cccs3)=NN2C(=O)c2ccc(Br)o2)cc1 (stereo not drawn) | 730 cells |
| CCOc1ccc(N(CC(=O)Nc2ccccc2OCC)S(=O)(=O)c2c(C)noc2C)cc1 | 198 cells |
| COC(=O)C1=C(C(=O)OC)SC(=C2C(=S)C(C)(C)N(C(=O)C(C)C)c3ccccc32)S1 | 721 cells |
| COc1cc([C@@H]2c3cc4c(cc3[C@H](O)[C@H]3COC(=O)[C@H]23)OCO4)cc(OC)c1OC | 40 cells |
| Cc1ccc(C)c(NS(=O)(=O)c2ccc(-c3cnc(C4CC4)o3)cc2)c1 | 227 cells |
| Cc1cccc(C(=O)N2CCN(CCNC(=O)C(=O)Nc3ccc(F)cc3)CC2)c1 | 166 cells |
| CCOc1ccc(NS(=O)(=O)c2ccc(C(=O)N(CC)CC(=O)NCc3cccs3)cc2)cc1 | 850 cells |
| CCOC(=O)N1CCN(C(=O)CSCC(=O)Nc2nc(-c3cccs3)cs2)CC1 | 764 cells |
| O=C(COC(=O)c1cc2ccccc2cc1O)Nc1cccnc1Cl | 290 cells |
| CCOc1ccc(CCNC(=O)CCc2nnc3ccc(N4CCCCC4)nn23)cc1OCC | 709 cells |
| C=CCNC(=S)NNC(=O)C(CCCC)CC(C)(C)O (stereo not drawn) | 127 cells |
| COc1n[nH]c(C(=O)Nc2cc(F)ccc2C)c1[N+](=O)[O-] | 732 cells |

| SMILES | cell count |
| --- | --- |
| Cc1cccc2sc(NC(=O)CN(C)S(=O)(=O)c3cccs3)nc12 | 797 cells |
| COc1ccc(OCCNc2cc(Cl)ccc2[N+](=O)[O-])cc1 | 233 cells |
| CCCCCn1c(N)c(-c2nc3ccccc3s2)c2c([N+](=O)[O-])nn(CC)c(=O)c21 | 755 cells |
| CCOc1ccc(CCNC(=O)CCC(=O)N2CCOc3ccc(C)cc32)cc1OCC | 757 cells |
| O=C(CSc1nc2[nH]ncc2c(=O)[nH]1)NCc1ccccc1 | 283 cells |
| CCCCCCCNC(=O)C1(CC2CC(c3ccc(Cl)cc3)=NO2)CCN(C(=O)c2cc(OCC)c(OCC)c(OCC)c2)CC1 (stereo not drawn) | 822 cells |
| COc1ccccc1CNS(=O)(=O)c1ccc2c(c1)CC(C)N2C(=O)C1CCC1 (stereo not drawn) | 760 cells |
| CCOc1ccc(CCNC(=O)CCC(=O)N2CCSc3ccccc32)cc1OCC | 793 cells |
| O=C1/C(=C/c2ccc([N+](=O)[O-])cc2)CCC1C1CCCC1 (stereo not drawn) | 829 cells |
| CCOc1ccc(OCc2ccc(C(=O)N/N=C(\C)c3ccccn3)cc2)cc1 | 244 cells |
| Cc1cc(C)cc(NC(=O)CSc2nc3ccccc3nc2N2CCCC2)c1 | 736 cells |
| CCOC(=O)C1CCN(C(=O)C2(NC(=O)Nc3ccccc3Cl)CCCCC2)CC1 | 743 cells |
| CCCCCc1cc(=O)oc2c(C(CCN3CCCC(C)C3)c3ccc(N(C)C)cc3)c(OC)cc(OC)c12 (stereo not drawn) | 707 cells |
| CC(=O)c1ccc(Nc2nc(=O)c3cccnc3s2)cc1 | 749 cells |
| COc1cc(C2C=C(c3cccs3)Nc3ncnn32)cc(OC)c1OC (stereo not drawn) | 177 cells |
| CCOc1ccc(CN(C)C(=O)NNC(=O)c2ccc(C)cc2)cc1OC | 822 cells |
| COc1ccc(C(=O)OC(C)C(=O)NC(C)CCc2ccccc2)cc1OC (stereo not drawn) | 860 cells |
| CCOc1ccccc1NC(=O)CCCNC(=O)Cn1cnc2sc(C)c(C)c2c1=O | 801 cells |
| COc1ccc(Br)cc1CNC(=O)CCCc1cn(C)c2ccccc12 | 731 cells |
| CCOC(=O)c1ccc(NC(=O)COc2ccc(S(=O)(=O)NC(C)(C)C)cc2)cc1 | 705 cells |
| Cc1ccc(NC(=O)CN(C)S(=O)(=O)c2cccs2)c(Br)c1 | 856 cells |
